# Data published in the supplement of paper PMC8728848.
# This is one part of the list.
# B1: AAL (Agrocybe aegerita), Q6WY08 (protein)
# chain: MQGVNIYNISAGTSVDLAAPVTTGDIVTFFSSALNLNAGAGNPNNTTLNLFAENGAYLLHIAHRLQENVIIFNSRQPDGPWLVEQRVSDVANQFAGIDGKAMVTVFDHGDKYQVVINEKTVIQYTKQISGLTLSLSYNATEETSIFSTVVEAVTYTGLALEHHHHHH
# Experiments:
# Experiment in all cases: glycan array binding signal (z-score within array); higher = stronger binding
# Conditions in all cases: glycan notation: IUPAC condensed, linker removed; mutation: F63H
# [1] = target: Gal(b1-4)GalNAc(b1-3)[Fuc(a1-2)]Gal(b1-4)GlcNAc
# In short: (§1)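 Glycan array data were curated from 3228 arrays in the Consortium for Functional Glycomics database and kept only where the protein sequence was available. Glycan names were converted to IUPAC-condensed notation, and columns mapping to the same glycan were averaged. The binding signal is a within-array Z-score, averaged across arrays of the same protein sequence at different concentrations or buffers and across linkers. Negative Z-scores can be read as non-binding.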
# Gal(b1-4)Glc = target: Gal(b1-4)Glc
# In short: as §1
# Gal(b1-4)Glc6S = target: Gal(b1-4)Glc6S
# In short: as §1
# Gal(b1-4)GlcNAc = target: Gal(b1-4)GlcNAc
# In short: as §1
# [2] = target: Gal(b1-4)GlcNAc(a1-6)Gal(b1-4)GlcNAc
# In short: as §1
# Gal(b1-4)GlcNAc(b1-2)Man = target: Gal(b1-4)GlcNAc(b1-2)Man
# In short: as §1
# [3] = target: Gal(b1-4)GlcNAc(b1-2)Man(a1-3)Man(b1-4)GlcNAc(b1-4)GlcNAc
# In short: as §1
# [4] = target: Gal(b1-4)GlcNAc(b1-2)Man(a1-3)[Gal(b1-4)GlcNAc(b1-2)Man(a1-6)]Man(b1-4)GlcNAc(b1-4)GlcNAc
# In short: as §1
# [5] = target: Gal(b1-4)GlcNAc(b1-2)Man(a1-3)[Gal(b1-4)GlcNAc(b1-2)Man(a1-6)]Man(b1-4)GlcNAc(b1-4)[Fuc(a1-6)]GlcNAc
# In short: as §1
# [6] = target: Gal(b1-4)GlcNAc(b1-2)Man(a1-3)[Gal(b1-4)GlcNAc(b1-2)Man(a1-6)][Gal(b1-4)GlcNAc(b1-4)]Man(b1-4)GlcNAc(b1-4)[Fuc(a1-6)]GlcNAc
# In short: as §1
# [7] = target: Gal(b1-4)GlcNAc(b1-2)Man(a1-3)[Gal(b1-4)GlcNAc(b1-2)Man(a1-6)][GlcNAc(b1-4)]Man(b1-4)GlcNAc(b1-4)[Fuc(a1-6)]GlcNAc
# In short: as §1
# [8] = target: Gal(b1-4)GlcNAc(b1-2)Man(a1-3)[GlcNAc(b1-2)Man(a1-6)]Man(b1-4)GlcNAc(b1-4)GlcNAc
# In short: as §1
# [9] = target: Gal(b1-4)GlcNAc(b1-2)Man(a1-3)[GlcNAc(b1-4)][Gal(b1-4)GlcNAc(b1-2)Man(a1-6)]Man(b1-4)GlcNAc(b1-4)GlcNAc
# In short: as §1
# [10] = target: Gal(b1-4)GlcNAc(b1-2)Man(a1-3)[Man(a1-6)]Man(b1-4)GlcNAc(b1-4)GlcNAc
# In short: as §1
# [11] = target: Gal(b1-4)GlcNAc(b1-2)Man(a1-6)Man(b1-4)GlcNAc(b1-4)GlcNAc
# In short: as §1
# [12] = target: Gal(b1-4)GlcNAc(b1-2)Man(a1-6)[GlcNAc(b1-2)Man(a1-3)]Man(b1-4)GlcNAc(b1-4)GlcNAc
# In short: as §1
# [13] = target: Gal(b1-4)GlcNAc(b1-2)Man(a1-6)[Man(a1-3)]Man(b1-4)GlcNAc(b1-4)GlcNAc
# In short: as §1
# [14] = target: Gal(b1-4)GlcNAc(b1-2)[Gal(b1-4)GlcNAc(b1-4)]Man(a1-3)[Gal(b1-4)GlcNAc(b1-2)Man(a1-6)]Man(b1-4)GlcNAc(b1-4)GlcNAc
# In short: as §1
# [15] = target: Gal(b1-4)GlcNAc(b1-2)[Gal(b1-4)GlcNAc(b1-4)]Man(a1-3)[Gal(b1-4)GlcNAc(b1-2)[Gal(b1-4)GlcNAc(b1-6)]Man(a1-6)]Man(b1-4)GlcNAc(b1-4)GlcNAc
# In short: as §1
# [16] = target: Gal(b1-4)GlcNAc(b1-2)[Gal(b1-4)GlcNAc(b1-4)]Man(a1-3)[GlcNAc(b1-4)][Gal(b1-4)GlcNAc(b1-2)Man(a1-6)]Man(b1-4)GlcNAc(b1-4)GlcNAc
# In short: as §1
# [17] = target: Gal(b1-4)GlcNAc(b1-2)[Gal(b1-4)GlcNAc(b1-4)]Man(a1-3)[GlcNAc(b1-4)][Gal(b1-4)GlcNAc(b1-2)[Gal(b1-4)GlcNAc(b1-6)]Man(a1-6)]Man(b1-4)GlcNAc(b1-4)GlcNAc
# In short: as §1
# [18] = target: Gal(b1-4)GlcNAc(b1-2)[Gal(b1-4)GlcNAc(b1-6)]Man(a1-6)[Gal(b1-4)GlcNAc(b1-2)Man(a1-3)]Man(b1-4)GlcNAc(b1-4)GlcNAc
# In short: as §1
binder,measurement,setting,value
B1,glycan array binding signal (z-score),[1],0.273
same,glycan array binding signal (z-score),Gal(b1-4)Glc,-0.57
same,glycan array binding signal (z-score),Gal(b1-4)Glc6S,-0.108
same,glycan array binding signal (z-score),Gal(b1-4)GlcNAc,-0.505
same,glycan array binding signal (z-score),[2],-0.321
same,glycan array binding signal (z-score),Gal(b1-4)GlcNAc(b1-2)Man,0.042
same,glycan array binding signal (z-score),[3],-0.293
same,glycan array binding signal (z-score),[4],-0.102
same,glycan array binding signal (z-score),[5],-0.166
same,glycan array binding signal (z-score),[6],-0.332
same,glycan array binding signal (z-score),[7],0.125
same,glycan array binding signal (z-score),[8],-0.361
same,glycan array binding signal (z-score),[9],-0.345
same,glycan array binding signal (z-score),[10],-0.322
same,glycan array binding signal (z-score),[11],0.16
same,glycan array binding signal (z-score),[12],-0.263
same,glycan array binding signal (z-score),[13],0.29
same,glycan array binding signal (z-score),[14],-0.003
same,glycan array binding signal (z-score),[15],-0.146
same,glycan array binding signal (z-score),[16],0.088
same,glycan array binding signal (z-score),[17],-0.286
same,glycan array binding signal (z-score),[18],-0.334
